# Reference: the supplement of paper PMC9135407
# Structures can show the parent of a compound that is named as a salt. About 620 (11%) of roughly 5,800 compounds showed activity.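 How the source made its calls: active = score above a cut-off or among the top three wells of a plate; in these data no inactive exceeds 0.85.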 This is a selection; strong and weak results do not stand in their true shares.
# System: primary human hepatic stellate cells (donor 1)
# Assay: scaled lipid accumulation score (0 = DMSO-like, 1 = nortriptyline-like); higher = stronger HSC inactivation (lipid re-accumulation), active = hit call of the paper
# Settings: 48 h
# [1] = library stock concentration: 10 mM
# [2] = library stock concentration: 1 mM
# [3] = library stock concentration: 3.33 mM
smiles,measurement,setting,value
Nc1cc(Cl)c(NC2=NCCN2)c(Cl)c1 [p-Aminoclonidine hydrochloride],scaled lipid accumulation score,[1],inactive: ≤ 0
Cn1cc(C2=C(c3ccc(Cl)cc3Cl)C(=O)NC2=O)c2ccccc21,scaled lipid accumulation score,[1],active: 1.37
NO [Hydroxylamine hydrochloride],scaled lipid accumulation score,[1],inactive: ≤ -0.07
Cc1cc(C)c(S(=O)(=O)Nc2ccccc2C(F)(F)F)c(C)c1,scaled lipid accumulation score,[1],inactive: 0.002
C(=C\c1ccccc1)/CN1CCN(C(c2ccccc2)c2ccccc2)CC1 [Cinnarazine],scaled lipid accumulation score,library stock concentration: 5.4 mM,inactive: 0.328
same,scaled lipid accumulation score,[1],inactive: 0.423
COc1cc2ncnc(Nc3ccc(F)c(Cl)c3)c2cc1OCCCN1CCOCC1 [Gefitinib (ZD1839)],scaled lipid accumulation score,[1],active: 1.05
"CCCCC/C=C\C=C\CCCCCCCCC(=O)O [10(E),12(Z)-Conjugated Linoleic Acid]",scaled lipid accumulation score,[2],inactive: 0.069
CC(C)[C@H](CO)Nc1nc(Nc2ccc(C(=O)O)c(Cl)c2)c2ncn(C(C)C)c2n1 [Purvalanol B (NG95) (0.4 mM)],scaled lipid accumulation score,library stock concentration: 400 uM,inactive: ≤ -0.005
CC(C)[C@H](CO)Nc1nc(Nc2ccc(C(=O)O)c(Cl)c2)c2ncn(C(C)C)c2n1 [Purvalanol B (NG95) (10 mM)],scaled lipid accumulation score,[1],inactive: ≤ -0.005
CC(C)[C@H](CO)Nc1nc(Nc2ccc(C(=O)O)c(Cl)c2)c2ncn(C(C)C)c2n1 [Purvalanol B (NG95) (2 mM)],scaled lipid accumulation score,library stock concentration: 2 mM,inactive: ≤ -0.005
CC(C)[C@H](CO)Nc1nc(Nc2ccc(C(=O)O)c(Cl)c2)c2ncn(C(C)C)c2n1 [Purvalanol B],scaled lipid accumulation score,[1],inactive: ≤ -0.003
Nc1nc(Cl)nc2c1ncn2[C@@H]1O[C@H](CO)[C@@H](O)[C@H]1O,scaled lipid accumulation score,[1],inactive: ≤ 0
Nc1nc(Cl)nc2c1ncn2[C@@H]1O[C@H](CO)[C@@H](O)[C@H]1O [2-Chloroadenosine],scaled lipid accumulation score,[1],inactive: 0.819
O=c1c(O[C@@H]2O[C@H](CO)[C@H](O)[C@H](O)[C@H]2O)c(-c2ccc(O)c(O)c2)oc2cc(O)cc(O)c12,scaled lipid accumulation score,library stock concentration: 8.8 mM,inactive: ≤ 0
CCCN(C/C=C/I)C1CCc2cccc(O)c2C1 (configuration not stated) [8-Hydroxy-PIPAT oxalate],scaled lipid accumulation score,[1],inactive: 0.221
COc1ccc(-n2c(SCCCN3C(=O)c4cccc5cccc(c45)C3=O)nnc2-c2ccncc2)cc1,scaled lipid accumulation score,[3],inactive: ≤ -0.009
same,scaled lipid accumulation score,[1],inactive: 0.102
CCCCC[C@@H](O)/C=C/[C@@H]1[C@@H](C/C=C\CCCC(=O)O)[C@@H](O)C[C@H]1O [15(R)-Prostaglandin F2.alpha.],scaled lipid accumulation score,[2],inactive: ≤ 0
COc1cc2c(Nc3ccc(NC(=O)c4ccccc4)cc3)ncnc2cc1OCCCN1CCOCC1,scaled lipid accumulation score,[1],active: 1.14
C[C@@H]1C[C@H]2[C@@H]3CCC4=CC(=O)C=C[C@]4(C)[C@@]3(F)[C@@H](O)C[C@]2(C)[C@@]1(O)C(=O)COP(=O)(O)O [Dexamethasone sodium phosphate],scaled lipid accumulation score,[1],inactive: ≤ 0
OCc1ccccc1O[C@@H]1O[C@H](CO)[C@@H](O)[C@H](O)[C@H]1O [Salicin],scaled lipid accumulation score,[3],inactive: ≤ 0
same,scaled lipid accumulation score,library stock concentration: 7 mM,inactive: ≤ 0
same,scaled lipid accumulation score,[1],inactive: ≤ 0
Nc1ncnc2c1nc(Br)n2C1OC2COP(=O)(O)O[C@@H]2C1O (some centres not stated) [8-Bromo-cAMP sodium],scaled lipid accumulation score,[1],inactive: ≤ 0
COc1ccc(NS(=O)(=O)c2ccc(I)cc2)cc1N1CCN(C)CC1,scaled lipid accumulation score,[1],inactive: 0.604
C=CC1=C(C(=O)O)N2C(=O)[C@@H](NC(=O)/C(=N\O)c3csc(N)n3)[C@H]2SC1 [Cefdinir],scaled lipid accumulation score,library stock concentration: 5.1 mM,inactive: ≤ 0
same,scaled lipid accumulation score,[1],inactive: ≤ -0.027
C=CC1=C(C(=O)O)N2C(=O)[C@@H](NC(=O)/C(=N\O)c3csc(N)n3)[C@H]2SC1,scaled lipid accumulation score,[1],inactive: ≤ 0
CN1C(CCl)Nc2cc(Cl)c(S(N)(=O)=O)cc2S1(=O)=O (configuration not stated),scaled lipid accumulation score,[1],inactive: 0.013
CN1C(CCl)Nc2cc(Cl)c(S(N)(=O)=O)cc2S1(=O)=O (configuration not stated) [Methyclothiazide],scaled lipid accumulation score,[3],inactive: ≤ 0
same,scaled lipid accumulation score,[1],inactive: ≤ -0.001
CCc1cc(Cl)c(OC)c(C(=O)NC[C@@H]2CCCN2CC)c1O.Cl [Eticlopride hydrochloride],scaled lipid accumulation score,[1],active: 0.978
CC(=O)NS(=O)(=O)c1ccc(N)cc1 [Sulfacetamide],scaled lipid accumulation score,library stock concentration: 9.3 mM,inactive: ≤ 0
same,scaled lipid accumulation score,[1],inactive: ≤ 0
CC(=O)NS(=O)(=O)c1ccc(N)cc1 [Sulfacetamide Sodium],scaled lipid accumulation score,[3],inactive: ≤ 0
same,scaled lipid accumulation score,[1],inactive: 0.052
CC(=O)NS(=O)(=O)c1ccc(N)cc1 [Sulfacetamide sodic hydrate],scaled lipid accumulation score,,inactive: 0.029
CCCCCCCC/C=C\CCCCCCCC(=O)N[C@@H](CO)C(=O)O [N-Oleoyl-L-Serine],scaled lipid accumulation score,[2],inactive: ≤ 0
Cc1cn([C@H]2C=C[C@@H](CO)O2)c(=O)[nH]c1=O,scaled lipid accumulation score,[1],inactive: ≤ 0
Cc1cn([C@H]2C=C[C@@H](CO)O2)c(=O)[nH]c1=O [Stavudine (d4T)],scaled lipid accumulation score,[3],inactive: ≤ 0
same,scaled lipid accumulation score,[1],inactive: ≤ 0
Cc1ccc(S(=O)(=O)Cc2nc(-c3ccc(C(=O)NCc4cccnc4)cc3)oc2C)cc1,scaled lipid accumulation score,[3],inactive: ≤ -0.009
same,scaled lipid accumulation score,[1],inactive: 0.053
O=C(Nc1cccc(C(=O)Nc2ccc(S(=O)(=O)O)c3cc(S(=O)(=O)O)cc(S(=O)(=O)O)c23)c1)Nc1cccc(C(=O)Nc2ccc(S(=O)(=O)O)c3cc(S(=O)(=O)O)cc(S(=O)(=O)O)c23)c1,scaled lipid accumulation score,[1],inactive: 0.313
C=CC(=O)Nc1cc(Nc2nccc(-c3cn(C)c4ccccc34)n2)c(OC)cc1N(C)CCN(C)C,scaled lipid accumulation score,[3],active: 0.983
"CCCCC/C=C\C/C=C\CC1OC1C/C=C\CCCC(=O)O (configuration not stated) [8,9-Epoxyeicosatrienoic acid]",scaled lipid accumulation score,library stock concentration: 100 uM,inactive: ≤ -0.021
COc1cccc2c1C(=O)c1c(O)c3c(c(O)c1C2=O)C[C@@](O)(C(C)=O)C[C@@H]3O[C@H]1C[C@H](N)[C@H](O)[C@H](C)O1,scaled lipid accumulation score,[1],inactive: 0.004
COc1cccc2c1C(=O)c1c(O)c3c(c(O)c1C2=O)C[C@@](O)(C(C)=O)C[C@@H]3O[C@H]1C[C@H](N)[C@H](O)[C@H](C)O1 [Daunorubicin hydrochloride],scaled lipid accumulation score,,inactive: ≤ 0
same,scaled lipid accumulation score,[1],inactive: 0.391
COc1cccc2c1C(=O)c1c(O)c3c(c(O)c1C2=O)C[C@@](O)(C(C)=O)C[C@@H]3O[C@H]1C[C@H](N)[C@H](O)[C@H](C)O1 [Daunorubicin HCl],scaled lipid accumulation score,[3],inactive: 0.314
same,scaled lipid accumulation score,[1],inactive: 0.169
